The whole screen tested about 45,000 compounds, of which about 65 (0.1%) were called active. Calls come from the whole dose curve; as a rule, active = well fitted activation curve with a large enough effect; inconclusive = small, poorly fitted or top-dose-only effect; inactive = no such curve, though single readings can be large or run the other way. This is one part of the list.
Molecular target: Galactocerebrosidase (Homo sapiens) (UniProt P54803)
Assay: A Novel Cell-Based Assay to Identify Small Molecules for B -Galactocerebrosidase; note: 0% is about no effect; nearly all actives have a fitted effect of over 65% in size
Details: 145M-Twi-hGALC-G270D cells (Twitcher mouse brain line with human GALC G270D), HMU-beta-Gal fluorescence, 48 h; series mostly up to 57.5 µM; activation: at the top concentration
Procedure, shortened: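 Fluorescence readout: HMU-β-gal cleavage by mutant GALC (0.1 mM final, citrate/phosphate pH 5.2 with 1 mg/mL taurocholate), stopped with carbonate/bicarbonate plus Triton X-100. Cells: murine Twitcher 145M-Twi expressing human G270D GALC; qHTS for activators.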

Chain of UniProt P54803 (P54803 whole entry, looked up): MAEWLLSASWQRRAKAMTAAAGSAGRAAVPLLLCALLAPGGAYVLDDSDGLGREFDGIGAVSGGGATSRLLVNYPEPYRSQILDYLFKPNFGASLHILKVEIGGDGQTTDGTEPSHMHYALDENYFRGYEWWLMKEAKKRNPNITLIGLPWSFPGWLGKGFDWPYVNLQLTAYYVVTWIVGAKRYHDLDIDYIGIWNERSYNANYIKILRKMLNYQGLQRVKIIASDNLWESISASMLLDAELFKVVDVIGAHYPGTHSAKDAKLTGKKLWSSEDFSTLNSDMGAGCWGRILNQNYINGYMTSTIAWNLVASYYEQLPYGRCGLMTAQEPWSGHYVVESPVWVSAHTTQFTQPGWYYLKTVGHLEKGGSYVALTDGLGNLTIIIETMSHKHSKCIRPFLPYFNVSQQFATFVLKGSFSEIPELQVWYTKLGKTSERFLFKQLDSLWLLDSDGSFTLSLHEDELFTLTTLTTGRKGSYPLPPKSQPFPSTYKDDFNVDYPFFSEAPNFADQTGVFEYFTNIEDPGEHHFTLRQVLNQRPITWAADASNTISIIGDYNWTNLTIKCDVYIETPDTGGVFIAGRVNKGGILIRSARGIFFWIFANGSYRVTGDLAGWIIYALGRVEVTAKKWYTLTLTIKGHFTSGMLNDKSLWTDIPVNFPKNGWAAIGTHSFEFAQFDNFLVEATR

activation, inactive:
COc1cccc(NC(=O)C(=O)NCCc2csc(-c3ccc(C)cc3)n2)c1 -13.7%
CCn1c(CN2CCCCC2)nc2cc(NC(=O)c3ccccc3[N+](=O)[O-])ccc21 -16.9%
CSc1ncc(C(=O)NCc2ccc(Cl)cc2)c(C(F)(F)F)n1 -9.03%
CCOC(=O)CSc1nc(-c2ccccc2)cc(C(F)(F)F)c1C#N -16.4%
Cc1nn(-c2ccccc2)c(OC(=O)c2ccc(F)cc2)c1S(=O)(=O)c1ccccc1 -14.1%
COc1cccc(N2CCN(C(=O)c3cc4c(=O)n(Cc5cccs5)ccc4nc3C)CC2)c1 -25.5%
Cc1ccc(CNC(=O)Cn2ncc3c([nH]c4ccc(C)cc43)c2=O)cc1 1.39%
COC(=O)c1ccc(Cl)cc1NC(=O)NCc1c(-n2cccc2)sc2c1CCCC2 -8.97%
CCOc1ccc(C(=O)Nc2ccc(C(=O)OCc3cc(=O)n4ccsc4n3)cc2)cc1 -21.6%
O=C(Nc1cccc2cccnc12)c1cccc2ccccc12 -17.7%
CCOC(=O)c1ccc(NC(=O)c2csc3c2CCCC3)cc1 -11%
CCCc1cc(=O)[nH]c(SCc2nc(-c3ccc(C)cc3)no2)n1 -4.58%
COc1ccc(CCNC(=O)c2ccc(-n3c(C)cc4c3CCCC4)cc2)cc1OC -15.2%
COc1ccccc1CCNC(=O)Cc1c(C)c2cc3c(C(C)(C)C)coc3c(C)c2oc1=O 1.95%
Cc1cccc(NC(=O)Cn2cnc(S(=O)(=O)N3CCCC3)c2)c1C -0.995%
COc1ccccc1NC(=O)CN1C(=O)CC(c2ccc(C)c(C)c2)=Nc2ccccc21 -14.7%
Cc1cccc(Cn2c(SCc3ccc(C(=O)N4CCC(C)CC4)cc3)nc3ccncc32)c1 1.12%
CC(C)Oc1ccc(CNC(=O)Nc2ccc3c(c2)N(C)C(=O)c2ccccc2S3)cc1 -3.32%
COc1ccc(N2CCN(S(=O)(=O)CCNC(=O)COc3cccc(OC)c3)CC2)cc1 -17%
CCCSc1ncc(Cl)c(C(=O)Nc2c(C(=O)Nc3ccccc3)oc3ccccc23)n1 -9.26%
Cc1cccc(NC(=O)c2c(NC(=O)c3ccccc3)sc3c2CCCC3)c1 0.908%
Cn1c(=O)c2c(ncn2CC(=O)O)n(C)c1=O -7.56%
O=C(OCC1CCCO1)c1ccc2c(c1)N(Cc1cccc(Cl)c1)C(=O)c1ccccc1S2(=O)=O (stereo unspecified) -9.54%
O=C1O[C@H](CO)[C@@H](O)[C@H](O)[C@H]1O -7.95%
Cc1ccc(NC(=O)NCCOCCn2c(=O)oc3ccccc32)cc1F -15.2%
O=S(=O)(c1ccc(Br)cc1)c1nnn2c1nc(Nc1cccc(C(F)(F)F)c1)c1sccc12 0.769%
CCOc1ccc(-c2cc3nc(C4CCN(C(=O)OC(C)(C)C)CC4)c(C(=O)Nc4ccc(C)cc4Cl)cn3n2)cc1 -18.4%
COC(=O)c1c(C)sc(-c2c(-c3ccc4c(c3)OCCO4)[nH]c3[nH]c(=O)[nH]c(=O)c23)c1O 8.09%
CN1CCSc2ccc(C(=O)NCc3ccccc3F)cc21 -5.56%
Cc1cc(C)c2c(n1)nn1c(C)c(CCC(=O)NCc3ccccc3Cl)c(C)nc21 6.47%
CCN(c1ccccc1)S(=O)(=O)c1ccc(NC(=O)c2cc(=O)c3cc(C)ccc3o2)cc1 -13%
O=C(c1ccc2c(c1)N(Cc1ccc(F)cc1)C(=O)c1ccccc1S2=O)N1CCOCC1 (stereo unspecified) -12.1%
CCC(Sc1nc2ccccc2c2nc(CCc3c(C)n[nH]c3C)nn12)C(=O)Nc1ccc(OC)cc1 (stereo unspecified) -15.7%
O=C(Nc1nnc(N2CCCCCC2)s1)Nc1ccccc1C(F)(F)F -4.87%
COc1cc(C(=O)Nc2nc3c(s2)Cc2c(Br)ccc(OC)c2-3)cc(OC)c1OC -14.7%
COc1ccc(Cl)cc1NC(=O)CSc1c2c(nc3ccccc13)CCC2 -7.56%
CCN1CCN(c2nnc(-n3cccc3C(=O)Nc3cccc(OC)c3)s2)CC1 -17%
O=C(Cn1ccn(-c2ccc(F)c(F)c2)c(=O)c1=O)c1ccc(F)cc1 -10.5%
CC(C)c1nn2c(=O)cc(COC(=O)CNC(=O)c3ccccc3Cl)nc2s1 -15.4%
CCn1c(=O)sc2cc(NC(=O)c3cccc(OC)c3)ccc21 4.21%
COc1ccc(C2CC(=O)c3c(C)nc(N4CCN(C=O)CC4)nc3C2)c(OC)c1 (stereo unspecified) -11.2%
Cc1nnc(NC(=O)CSc2nccn2-c2ccc(Cl)cc2)s1 -4.28%
CCC(C)n1c(SCc2ccc(C(C)(C)C)cc2)nc2ccsc2c1=O (stereo unspecified) 2.22%
CCOc1ccc(Cn2c(CNS(=O)(=O)c3c(C)cc(C)cc3C)nc3cccnc32)cc1 -0.367%
Cc1ccc(OCc2nc(-c3ccc(C(=O)N4CCN(c5cc(Cl)ccc5C)CC4)cc3)oc2C)cc1 -12.3%
Oc1cn2c(n1)Nc1ccc(Cl)c(Cl)c1C2 -18.1% [at 23.8 µM]
O=S(=O)(c1ccccc1)c1nc(-c2cccs2)oc1SCc1ccccc1Cl -5.58%
CCOC(=O)c1c(-c2ccc(C)cc2)csc1NC(=O)c1cc(=O)c2cc(Cl)ccc2o1 -17.7%
O=C(CC1NCCNC1=O)Nc1ccccc1F (stereo unspecified) -7.77%
CCOc1ccccc1NC(=O)CSc1nc2c([nH]c3ccccc32)c(=O)n1-c1ccccc1 -15%
Cc1ccc(Cl)cc1N1CCN(C(=O)c2cc3c(=O)n(C)c4ccccc4c3s2)CC1 -5.05%
CCOC(=O)CC(=O)CSc1nc2ccccc2c(=O)n1-c1ccc(C(=O)NCCOC)cc1 -19.4%
COC(=O)c1ccc(C(=O)OC)c(NC(=O)N2CC3CCCN3c3ccccc32)c1 (stereo unspecified) -9.64%
Cc1cccc(OCC(=O)OCc2cc(=O)n3nc(-c4cccs4)sc3n2)c1 -12.2%
O=C(Nc1ccc2nc(SCC(=O)N3CCCC3)sc2c1)c1ccc(Br)cc1 -6.55%
Cc1ccc(CSc2ccc3nnc(CCNS(=O)(=O)c4ccc(C)cc4)n3n2)cc1 -20.3%
Cc1ccc2nc(COc3cccc(NC(=O)COc4ccccc4F)c3)cc(=O)n2c1 -9.16%
CCOC(=O)c1cc(-c2ccccc2)n(-c2cccc(C(=O)Nc3cccc(C)c3)c2)c1C 9.56%
O=C(C1CC1)N1CCc2cc(Br)cc(S(=O)(=O)N3CCN(c4cccc(Cl)c4)CC3)c21 -11.7%
COC(=O)c1ccccc1NC(=O)Cn1c(=O)nc(-c2ccccc2)c2cc(Cl)ccc21 -9.74%
Cc1ccc(NC(=O)c2cc(S(=O)(=O)N3CCCc4ccccc43)ccc2F)cc1F -31.7%
